Assay results taken from US11366114B2, “Genetically encoded fluorescent sensors for detecting ligand bias and intracellular signaling through cAMP pathways” (MONTANA MOLECULAR LLC, priority 2013, dated 2022).

System: cAMP
Assay: Fluorescence response of cAMP sensors to isoproterenol in HEK 293 cells co-expressing the beta adrenergic receptor
Assay type: cell-based, human
Details: in response to isoproternol
Description: To test the functionality of these 28 prototype sensors, each construct was co-expressed with the beta adrenergic receptor, which couples to the Gs signaling pathway when activated by isoproteronol, in HEK 293 cells, and the fluorescence measured as described below. Briefly, 96-well glass-bottom plates were coated with Poly-D-Lysine (Fisher Scientific, Pittsburgh, Pa.) and HEK 293 were seeded and cultured in EMEM (ATCC, Manassas, Va.) supplemented with 10% fetal bovine serum and Penicillin-Streptomycin at 37 […] and 30 ng of beta adrenergic receptor per well, using Lipofectamine 2000 Transfection Reagent (Life Technologies, Grand Island, N.Y.) according to the manufacturer's protocol, and incubated for 24-48 hours at 37° C. in 5% CO2.
Prior to screening transfected cells for fluorescence, he EMEM culture medium was removed and 1×DPBS added to each well. A Zeiss Axiovert S100TV inverted microscope equipped with computer controlled excitation/emission filter wheels, shutters, and a Qimaging Retiga Exi CCD camera (Surrey, BC Canada) was used to image cells at 25e A) supplemented with 10% fetal bovine serum and Penicillin-Streptomycin at 37hn filters were used to resolve the green fluorescence from the cAMP sensors. Cells were analyzed for increases or decreases in fluorescence intensity upon addition of isoproternol, DMSO, forskolin and IBMX. To analyze the image stacks, background fluorescence was defined as a region of the image that contained no cells. The average value of this region was subtracted frame by frame from the measurements of the mean pixel values of the fluorescent cells. Fluorescence intensity data was plotted and analyzed with IGOR (Wavemetrics, Oswego, Oreg.).
For transient expression and screening in an automated fluorescence plate reader, HEK 293T cells were cultured in Corning Co-Star Polystyrene 96-well plates coated with Poly-D-Lysine. HEK293T cells were plated at 35,000 cells/well in 100 μl growth medium per well without antibiotics so that the cells would be 90-95% confluent at the time of transfection (approximately 24 hours later). For each transfection (i.e. one well in a 96-well plate), 160 ng of plasmid DNA (120 ng sensor+40 ng receptor) was diluted in […] and then the mixture was replaced with fresh medium. Prior to scanning a plate on the Biotek Synergy Mx, EMEM culture medium was replaced with 250 μl of 1×DPBS per well. Plates were read at 25° C., using monochromators set to 488/20 nm excitation and 530/20 nm emission to resolve the green fluorescence from the cAMP sensor.

B1: Lib6-2 C1-T2: Best Downward sensor; SEQID 6 in Table 1, SEQ ID NO: 7 in Table 3 (protein)
chain: MVAAHAAHSSSSAEWIACLDKRPLERSSEDVDIIFTRLKEVKAFEKFHPNLLHQICLCGYYENLEKGITLFRQGDIGTNWYAVLAGSLDVKVSETSSHQDAVTICTLGIGTAFGESILDNTPRHATIVTRESSELLRIEQKDFKALWEKYRQYMAGLLAPPYGVMETGSNNDRIPDKENTPLIEPHVPLRPANTITKVPSEKILRAGKILRNAILSRAPHMIRDRKYHLKTYRQCCVGTELVDWMMQQTPCVHSRTQAVGMWQVLLEDGVLNHVDQEHHFQDKYLFYRFLDDEHEDAPLPTEEEKKECDEELQDTMLLLSQMGPDAHMRMILRKPPGQRTVDDLEIIYEELLHIKALSHLSTTVKRELAGVLIFESHAKGGTVLFNQGEEGTSWYIILKGSVNVVIYGKGVVCTLHEGDDFGKLALVNDAPRAASIVLREDNCHFLRVDKEDFNRILRLENVYIKADKQKNGIKANFKIRHNIEDGGVQLAYHYQQNTPIGDGPVLLPDNHYLSVQSILSKDPNEKRDHMVLLEFVTAAGITLGMDELYKGGTGGSMVSKGEELFTGVVPIQVELDGDVNGHKFSVSGEGEGDATYGKLTLKFICTTGKLPVPWPTLVTTLTYGVQCFSRYPDHMKQHDFFKSAMPEGYIQERTIFFKDDGNYKTRAEVKFEGDTLVNRIELKGIDFKEDGNILGHKLEYNTRKEDFNRILRDVEANTVRLKEHDQDVLVLEKVPAGNRASNQGNSQPQQKYTVMSGTPEKILEHFLETIRLEATLNEATDSVLNDFIMMHCVFMPNTQLCPALVAHYHAQPSQGTEQEKMDYALNNKRRVIRLVLQWAAMYGDLLQEDDVSMAFLEEFYVSVSDDARMIAALKEQLPELEKIVKQISEDAKAPQKKHKVLLQQFNTGDERAQKRQPIRGSDEVLFKVYCMDPTYTTIRVPVATSVKEVISAVADKLGSGEGLIIVKMSSGGEKVVLKPNDVSVFMTLTINGRLFACPREQFDSLTPLPEQEGPTVGTVGTFELMSSKDLAYQMTIYDWELFNCVHELELIYHTFGRHNFKKTTANLDLFLRRFNEIQFWVVTEICLCSQLSKRVQLLKKFIKIAAHCKEYKNLNSFFAIVMGLSNVAVSRLALTWEKLPSKFKKFYAEFESLMDPSRNHRAYRLTVAKLEPPLIPFMPLLIKDMTFTHEGNKTFIDNLVNFEKMRMIANTARTVRYYRSQPFNPDAAQANKNHQDVRSYVRQLNVIDNQRTLSQMSHRLEPRRP
  Relative Change in Fluorescence: −40%
